# According to PubChem BioAssay AID686971 (National Center for Advancing Translational Sciences (NCATS), 2013):
# The whole screen tested about 360,000 compounds, of which about 7,500 (2.1%) were called active. This list was built around the results that the source calls inconclusive (neither active nor inactive); the mix of calls is not that of the screen. Calls follow the shape of the dose curve; as a rule, active = well fitted cell-killing curve with a large enough effect; inconclusive = small, poorly fitted or top-dose-only effect, or effect the other way, or another doubt; inactive = no such curve, though single readings can be large or run the other way. Potencies of inconclusive entries are left out as doubtful fits.
# Test: qHTS for induction of synthetic lethality in tumor cells producing 2HG: qHTS for the HT-1080-IDH1KD cell line
# Conditions: HT-1080 IDH1 knockdown viability, ATP luminescence, 48 h; activity, negative = toxicity: at 46.1 µM (top of the series) unless noted
# Description: Unbiased genomic sequencing for 22 glioma genomes found recurrent mutation of IDH1 on chromosome 2q33, a gene encoding the cytosolic isoform of IIDH1 associated with the tri-carboxylic acid cycle (TCA) that catalyzes the oxidative decarboxylation of isocitrate, yielding alpha-ketoglutarate and CO2 via NADP+ to NADPH conversion. Subsequent studies confirmed the recurrent IDH mutations in up to 70% of secondary gliomas and in 10% of AML cases. In addition, the somatic mutation of cancer-associated IDH1 is a point mutation resulting in various amino-acid substituents at Arginine132 (IDH1 R132), a key residue found in the enzyme's active site that when mutated, results in the loss-of-function in metabolizing isocitrate but confers a gain-of-function to produce the oncometabolite 2-hydroxyglutarate (2HG). This in effect defines IDH1 as an oncogene and provides an extraordinary opportunity to discover chemical probes against mutant IDH1 that may translate into much needed new therapies for glioma and AML patients.
# This assay aims to perform a synthetic-lethal screen for chemical probes specific for 2HG-producing tumor cells using matched paired cell lines (1) HT-1080-NT fibrosarcoma cell line that overproduces 2HG and (2) HT-1080-IDH1KD cell line which has IDH1 expression knocked-down. Desirable compounds are toxic to the NT fibrosarcoma cell line but not to the IDH1KD cell line. The data in this AID corresponds to the results of the qHTS against the HT-1080 IDH1KD cell line.
# [1] Dang L, Jin S, Su SM. IDH mutations in glioma and acute myeloid leukemia. Trends of Mol Med. 2010; 16(9): 387-97.
# [2] Dang L et al. Cancer-associated IDH1 mutations produce 2-hydroxyglutarate. Nature. 2010; 465(7300):966.
# Molecular Libraries Probe Production Centers Network [MLPCN]
# NIH Chemical Genomics Center [NCGC]
# Assay Submitter (PI): Lenny Dang Ph.D., Agios Pharmaceuticals
# Suspensions of trypsinized HT-1080-IDH1KD cells were dispensed into white, tissue culture-treated, solid 1536-well plates at 5uL/well (750 cells/well final concentration) in RPMI medium supplemented with 5% FBS. Plates were incubated at 37 degrees C for 2 hours, after which 23 nL of compounds or DMSO were delivered to each well using a pin tool. Plates were then incubated at 37 degrees C for an additional 48 hours. CellTiter-Glo viability reagent (Promega) was dispensed into wells (2.5uL/well) and incubated at room temperature for 10 minutes. The plates were measured on a PerkinElmer ViewLux plate reader for luminescent signal (clear filter, 1 sec exp.). DMSO-treated control wells and media-only (no cells) control wells were used to normalize %Activity of identified toxic compounds; DMSO-treated wells corresponded to 0%Activity (100% viability), while media-only controls were used to normalize 100%Activity (0% viability). To minimize variability between cell lines, both HT-1080-NT and HT-1080-IDH1KD lines were dispensed and treated with identical compound series in single batches.
# Concentration-response curves were fitted to the signals arising from the resulting luminescence. The concentration-effect curves were then classified based on curve quality (r2), response magnitude and degree of measured activity, and compounds were subsequently categorized based on their curve class.
# Potency is read from the fitted curve at half-maximal effect; tags tell the direction and shape of the fitted curve.
Compound,Potency,"activity, negative = toxicity"
CCN(CC)S(=O)(=O)c1ccc(Cl)c(NC(=S)NC(=O)C2CCCC2)c1,"inconclusive [cytotoxic, single point]",–
Cc1ccccc1C(=O)Oc1cccc(Nc2ncnc3ccccc23)c1,"inconclusive [cytotoxic, partial curve]",–
COC(=O)Cc1c(C)c2ccc(OCC(=O)NCc3ccc4c(c3)OCO4)cc2oc1=O,"inconclusive [cytotoxic, single point]",–
Cc1cccnc1C(NC(=O)C1CCN(Cc2cn(C)c3ccccc23)CC1)c1ccc(Cl)cc1 (stereo not given),"inconclusive [cytotoxic, single point]",–
Cc1ccc([C@H]2C[C@@H](n3cc(COC(=O)c4ccccc4)nn3)[C@H](O)CN2C(=O)c2cccs2)cc1,–,inactive: 2.07%
C#CCOCCOCCOCCNc1nc(N2CCN(C(=O)CCCCCCCCCCNC(=O)[C@@H](CCSC)n3cc(CCO)nn3)CC2)nc(N2CCN(C(=O)CCCCCCCCCCNC(=O)[C@H]([C@@H](C)CC)n3cc(CCCCN=C(N)N)nn3)CC2)n1,"inconclusive [cytotoxic, single point]",–
COc1ccc(C(O)c2nc(-c3cccc(C(C)C)c3)cs2)cc1 (stereo not given),"inconclusive [cytotoxic, single point]",–
O=C(COc1cc2oc(=O)c3c(c2cc1Cl)CCC3)Nc1ccc(CN2CCOCC2)cc1,"inconclusive [rising, partial curve, poor fit]",–
Cc1ccc(S(=O)(=O)N2C[C@H]3C(=O)C[C@@H](c4ccccc4)N(S(=O)(=O)c4cccc(C)c4)[C@H]3C[C@H]2c2ccccc2)cc1,–,inactive: 12.8%
C=C[C@H]1C(O[C@@H]2O[C@H](CO)[C@@H](O)[C@H](O)[C@H]2O)OC=C2C(=O)N3CCc4cc(OC)c(O)cc4[C@H]3C[C@H]21 (stereo not given in full),–,inactive: -1.18%
CCCN(CCC)CCCNC(=S)Nc1ccc2nc(N3CCN(C)CC3)cc(C)c2c1,–,inactive: -26.2%
O=C(NCc1ccc2c(c1)OCO2)C1CCCN1S(=O)(=O)c1ccc(Cl)cc1 (stereo not given),–,inactive: 14.4%
CCCn1nc2cc(C(=O)NCC34CC5CC(CC(C5)C3)C4)ccc2c1OCC,–,inactive: 1.11%
NC(=O)CN1C(=O)C(O)(CC(=O)/C=C\c2ccc3c(c2)OCO3)c2ccccc21 (stereo not given),"inconclusive [cytotoxic, single point]",–
Cc1ccc(NS(=O)(=O)c2cc([N+](=O)[O-])ccc2NNC(=S)Nc2cc(C)ccc2C)c(C)c1,"inconclusive [cytotoxic, single point]",–
CCOC(=O)C1(CCOc2ccccc2)CCN(Cc2cccc3c2OCO3)CC1,"inconclusive [cytotoxic, single point]",–
O=C(COc1ccc2c(c1)OCO2)Nc1nccs1,"inconclusive [cytotoxic, single point]",–
C#CCn1c2ccccc2c(=O)n1C(C)CBr (stereo not given),–,inconclusive: 31.1%

Compound,Potency,"activity, negative = toxicity"
Cc1ccc2nc(/C(C#N)=C\c3ccc(OC(=O)c4cccs4)cc3)[nH]c2c1,active: 7.94 µM,–
O=C(Nc1n[nH]c(C(F)(F)F)n1)C1CC1,"inconclusive [rising, single point]",–
C=CC[C@H](CC(=O)N(CCO)Cc1ccccc1)C(=O)N[C@H](COC(=O)[C@@H](CC=C)Cc1ccc(F)cc1)C(C)(C)C,"inconclusive [cytotoxic, single point]",–
C=CCc1cc(C=O)cc(OC)c1OCc1ccc(Cl)cc1,–,inactive: -12.7%
COc1ccc(Cc2nnc(SCC(=O)Nc3ccccc3C#N)o2)cc1,–,inactive: 19.1%
Nc1nccc2c1ncn2C1OC(CO)C(O)C1O (stereo not given),–,inactive: -15.6%
COc1ccc(/C=N/Nc2cc(C)nc(-n3nc(C)cc3C)n2)cc1,"inconclusive [cytotoxic, partial curve]",–
CS(=O)(=O)c1ccc(C(=O)NCCN2C(=O)S/C(=C\c3cccnc3)C2=O)cc1[N+](=O)[O-],"inconclusive [cytotoxic, single point]",–
O=C(NCc1cccc(F)c1F)C1CCC(=O)N(C2CCCCCC2)C1 (stereo not given),–,inactive: 1.4%
Oc1ccc(O)c(Cc2nc3ccccc3[nH]2)c1,–,inactive: -6.09%
CC[C@]12c3[nH]c4ccc(OC)cc4c3CCN1C(=O)C(CC(=O)NCc1ccco1)C[C@@H]2C(=O)N1CCN(C(=O)c2ccco2)CC1 (stereo not given in full),–,inactive: 12.9%
O=c1[nH]nc(SCCS(=O)(=O)c2ccc(F)cc2)n1-c1ccccc1C(F)(F)F,"inconclusive [cytotoxic, single point]",–
O=C(c1ccc(Cl)cc1)C1CCCN(C(=O)c2csnn2)C1 (stereo not given),–,inactive: 0%
CC1CCN(C(=O)CSc2nc(C(C)C)nc3c2c(=O)n(C)c(=O)n3C)CC1,–,inactive: -12%
Cc1ccc(NC(=O)c2ccc(CSc3ccccn3)cc2)c(O)c1,–,inactive: 0.837%
CC1Cc2ccccc2N1Cc1nc2cc(Cl)ccc2c(=O)[nH]1 (stereo not given),"inconclusive [cytotoxic, single point]",–
CCOC(=O)c1ccc(NC(=O)/C=C/c2cccs2)cc1,"inconclusive [cytotoxic, single point]",–
